Reference: PubChem BioAssay AID1645882 (National Center for Advancing Translational Sciences (NCATS), 2021)
Hit rate of the full screen: of about 16,000 compounds, about 120 (0.75%) were called active. Another 4% or so got no clear call; they are omitted. Calls come from the whole dose curve; as a rule, active = well fitted inhibition curve with a large enough effect; inconclusive = small, poorly fitted or top-dose-only effect; inactive = no such curve, though single readings can be large or run the other way. The list shows a part of the results. A structure can be active in one record and inactive in another.

Molecular target: Rap guanine nucleotide exchange factor 3 (Homo sapiens) (UniProt O95398)
Assay: Validation qHTS for antagonist of cAMP-regulated guanine nucleotide exchange factor 3 (EPAC1); note: nearly all actives have a fitted effect of over 75% in size
Settings: EPAC1 Rap1B-BODIPY-GDP exchange, fluorescence; series mostly up to 150 µM; activity change, negative = inhibition: at the top concentration
Source text: Assay Provider (PI): Xiaodong Cheng Ph.D.
The University of Texas Medical Branch, […], TX
In multi-cellular eukaryotic organisms, the effects of cAMP are transduced by two ubiquitously-expressed intracellular cAMP receptors, the classic protein kinase A/cAMP-dependent protein kinase (PKA/cAPK) and the more recently discovered exchange protein directly activated by cAMP/cAMP-regulated guanine nucleotide exchange factor (EPAC/cAMP-GEF). Both PKA and EPAC are ubiquitously expressed in all tissues, and an increase in intracellular cAMP levels will lead to the activation of both PKA and EPAC. Therefore, careful dissections of the individual role and relative contribution of EPAC and PKA within the overall cAMP signaling in various model systems are critical for further elucidating the mechanism of cAMP signaling. To date no EPAC-specific antagonists and agonist, as well as isoform-specific agonists have been reported, and developing EPAC-specific pharmacological probes to determine the physiological functions that EPAC play in the overall cAMP-mediated signaling remains a major challenge within the research field. Furthermore, identified regulators of EPAC may lead to new mechanism-based therapeutic strategies specifically targeting the EPAC / cAMP-signaling components as EPAC has been implicated to play important roles in major human pathological conditions such as diabetes, heart disease, and cancer.
This qHTS will be used to screen the Molecular Libraries Small Molecule Repository (MLSMR) as a concentration-titration series using the NCGC unique quantitative screening (qHTS) platform to find activators for EPAC1. In addition, this assay will also be used as a counterscreen for the EPAC2 qHTS. This fluorescent based assay is developed and validated for EPAC1 that measures exchange using EPAC effector Rap1 complex with BODIPY-GDP, a GDP analog with a tethered fluorophores. Activators are identified by monitoring the change in fluorescence signal as the exchanged free BODIPY-GDP has a reduced fluorescence compared to Rap1-bound BODIPY-GDP. Increase in signal (activation) is the desired outcome for the EPAC1 agonist while no activity in this assay is desired for the EPAC2 agonist counterscreen.
[1] de Rooij, J., Zwartkruis, F. J., Verheijen, M. H., Cool, R. H., Nijman, S. M., Wittinghofer, A., and Bos, J.L. (1998) Nature 396, 474-477.
Briefly, three uL of reagents (100 nM EPAC1, 250 nM RAP1B-BODIPY-GDP, 50 uM GDP) were dispensed into a 1536-well Greiner black solid-bottom medium binding assay plate. Controls and test compounds (23 nL) were transferred to the plate via a Kalypsys pin tool equipped with a 1536-pin array. The plates were centrifuged at 1,000 rpm for 15 seconds followed by 5 minute incubation at room temperature. The assay plates were read at 5 minute intervals for 30 minutes in the ViewLux plate reader using 480nm excitation and 540nm emission filters. The results were normalized to the […] positive control ATA and DMSO.
Potency is the fitted concentration of half-maximal effect.

UniProt O95398, sequence (O95398 whole entry, looked up): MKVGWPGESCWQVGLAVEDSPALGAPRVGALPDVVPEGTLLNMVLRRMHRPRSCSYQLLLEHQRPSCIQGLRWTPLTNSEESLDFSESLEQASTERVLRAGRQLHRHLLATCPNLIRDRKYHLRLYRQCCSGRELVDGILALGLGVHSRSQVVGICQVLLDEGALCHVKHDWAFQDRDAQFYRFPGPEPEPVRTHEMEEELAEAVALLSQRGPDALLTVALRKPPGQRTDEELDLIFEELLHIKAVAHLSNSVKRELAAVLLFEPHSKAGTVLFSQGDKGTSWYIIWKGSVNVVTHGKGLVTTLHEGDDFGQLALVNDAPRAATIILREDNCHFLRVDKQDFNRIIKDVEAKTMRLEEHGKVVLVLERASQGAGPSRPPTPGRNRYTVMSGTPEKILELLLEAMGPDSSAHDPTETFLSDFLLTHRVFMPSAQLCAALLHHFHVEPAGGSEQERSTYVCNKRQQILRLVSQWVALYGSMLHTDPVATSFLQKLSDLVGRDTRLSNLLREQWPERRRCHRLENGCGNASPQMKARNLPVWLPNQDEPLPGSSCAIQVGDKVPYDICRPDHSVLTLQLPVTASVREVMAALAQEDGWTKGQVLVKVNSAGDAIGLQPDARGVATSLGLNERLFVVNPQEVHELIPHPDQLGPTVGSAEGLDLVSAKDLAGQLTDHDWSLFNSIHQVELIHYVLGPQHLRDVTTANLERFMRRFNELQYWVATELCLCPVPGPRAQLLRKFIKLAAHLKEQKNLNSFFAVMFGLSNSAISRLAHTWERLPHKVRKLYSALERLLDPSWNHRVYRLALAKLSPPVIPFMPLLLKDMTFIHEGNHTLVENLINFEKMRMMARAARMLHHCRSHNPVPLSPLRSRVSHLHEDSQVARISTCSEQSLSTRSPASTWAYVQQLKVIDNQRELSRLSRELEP

SMILES	activity change, negative = inhibition	Potency
COc1cccc(N2[C@@H](CC(C)=O)c3ccccc3S2(=O)=O)c1	inactive: -4.28%	–
N#C/C(=C\c1ccc(O)c(O)c1)C(=O)Nc1ccccc1	–	active: 79.4 µM and inactive
COc1ccc([N+](=O)[O-])c2c1CCN2C(=O)CC[C@H](N)C(=O)O	inactive: 8.56%	–
CCN(CC)Cc1ccc(Nc2ccnc3cc(Cl)ccc23)cc1O	inactive: 0.981%	–
CC1(C)C(=O)C2C[C@]3(O)C4=CC(=O)OC(c5ccoc5)[C@]4(C)CCC3[C@](C)(C2=O)C1CC(=O)O (stereo partly specified)	inactive: 11.7%	–
CO/N=C(\C(=O)N[C@@H]1C(=O)N2C(C(=O)O)=CCS[C@H]12)c1csc(N)n1	inactive: 18.9%	–
O=C1NC(=O)C(c2ccccc2[N+](=O)[O-])=C1Nc1ccc(O)c(Cl)c1	inactive	–
CC(=O)c1ccccc1-c1ccc2c(c1)CC(CNC(=O)c1cc(C)on1)O2 (stereo unspecified)	inactive: 5.97%	–
CC(C)Cc1nc2cc(NS(=O)(=O)N(C)C)cc(C(=O)N3CCc4sccc4C3)c2n1C	inactive: 2.86%	–
Cc1c(C(=O)NCc2ccc(F)cc2)sc2ncnc(NCC3CCCO3)c12 (stereo unspecified)	inactive: 13.1%	–
O=C(O)[C@H]1CCCN1	inactive: 13.8%	–
COC(=O)N1CCC2(CCCN(C(=O)Nc3cccc(C#N)c3)C2)CC1	inactive: 35.7%	–
CCCc1ncc(C[n+]2ccccc2C)c(N)n1	inactive	–
N#Cc1cccc(NC(=O)N2CC[C@@]3(CCCNC3)C2)c1	inactive: -10.3%	–
CS(=O)(=O)N1CCC2(CC1)CN(Cc1cc(C(F)(F)F)cc(C(F)(F)F)c1)C2	inactive: 5.53%	–
CCCCCCCCCCCCCCCC(=O)NCC(COP(=O)([O-])OCC[N+](C)(C)C)OCC (stereo unspecified)	inactive: -7.94% [at 75.8 µM]	–
COc1ncc2nc(-c3cn(C)c4ccccc34)c(=O)n(-c3ccccc3)c2n1	inactive: 3.63%	–
Cc1nc2cnc(N(C)C)nc2n(-c2ccccc2)c1=O	inactive: -2.05%	–
Cc1cc(C)nc(S[C@@H]2C[C@@H](C(=O)N3CCCN(C)CC3)N(Cc3cc(F)ccc3F)C2)n1	inactive: 10.4%	–
CC=C1C2C=C(C)CC1(N)c1ccc(=O)[nH]c1C2 (stereo unspecified)	inactive: 35.3%	–
COCCNc1nc(-c2ccc(C(=O)N(C)C)cc2)nc2ccccc12	inactive: 8.34%	–
CCCCCCCC/C=C\C/C=C\C/C=C\CCCC(=O)NCCO	inactive: 24.1% [at 15.3 µM]	–

SMILES	activity change, negative = inhibition	Potency
COC(=O)c1ccc(CN2CCC3(CCC(CNC(=O)c4ccco4)O3)CC2)cc1 (stereo unspecified)	inactive: -14.2%	–
CN(C)C=Nc1c(I)cc(I)c(CCC(=O)O)c1I	inactive: 10.3%	–
O=C(O)c1c(C(=O)O)c2ccccc2[nH]c1=O	inactive: 10.2%	–
CC(C)NC[C@H](O)c1ccc(NS(C)(=O)=O)cc1	inactive: 1.42%	–
CC(=O)N1CCC2(CCN(Cc3ccccc3)CC2)CC1	inactive: 22.5%	–
Cc1ncc2c(c1CNC(=O)c1ccc3c(c1)OCO3)CCN(C(=O)c1cnsn1)C2	inactive: 3.63%	–
Cc1cccc(CNc2ncncc2-c2ccc(C(=O)N(C)C)cc2)c1	inactive: 0.33%	–
CC1(C)CCC(NC(=O)[C@@H](N)CCC(=O)O)CC1	inactive	–
CS(=O)(=O)N1CCC2(CCN(c3ccncc3)CC2)CC1	inactive: 13.4%	–
NCCn1oc(=O)[nH]c1=O	inactive: 17.8%	–
Nc1ncnc2c1ncn2C1CC(O)C(CO)O1 (stereo unspecified)	inactive	–
COCCn1c(=O)c(-c2ccc(F)cc2)nc2cnc(Nc3cccc(OC)c3)nc21	inactive: 20.9%	–
Fc1ccc(C(c2ccc(F)cc2)N2CCN(CC=Cc3ccccc3)CC2)cc1	inactive: -12.8%	–
CCN(CC)CCNC(=O)c1cnn(-c2nccc(-c3cc4ccccc4o3)n2)c1C	inactive: 19.7%	–
O=C(c1cccc(F)c1)N1CCC2(CCCN(Cc3ccccc3)C2)CC1	inactive: -2.96%	–
NC(N)=NN=Cc1c(Cl)cccc1Cl	inactive: 14%	–
O=C(O)C1CCNCC1	inactive: 9.43% [at 75.8 µM]	–
CC(=O)OCC(=O)NCCCOc1cccc(CN2CCCCC2)c1	inactive	–
O=[N+]([O-])c1ccc(C=C2c3ccccc3-c3ccccc32)cc1	inactive: 14.7%	–
CS(=O)(=O)c1ccc(-c2nc(-c3ccc(F)cc3)c(-c3ccncc3)[nH]2)cc1	inactive: 20.4% [at 201 µM]	–
CCn1cc(C(=O)O)c(=O)c2cc(F)c(N3CCNCC3)nc21	inactive	–
COC(=O)[C@H]1[C@H]2CC3c4[nH]c5ccccc5c4CCN3C[C@@H]2CC[C@@H]1O (stereo partly specified)	inactive: 18.4%	–

SMILES	activity change, negative = inhibition	Potency
CCCCc1c(C)nc2c(OC)cccc2c1SCC(=O)O	inactive: 17.1%	–
COCc1c(C(=O)NC2CCOC(C)(C)C2)cnn1-c1nccc(-c2cccs2)n1 (stereo unspecified)	inactive: 18.6%	–
O=S1(=O)CCOC[C@H](CC2CCCCC2)N1Cc1ccccc1Br	inactive: -18.4%	–
CC1(C)CCC=[N+]1[O-]	inactive: 11.1% [at 75.8 µM]	–
COC(=O)C1=C(C)NC(COC(N)=O)=C(C(=O)OC(C)C)C1c1cccc(Cl)c1Cl (stereo unspecified)	inactive: -11.5%	–
Cc1ccccc1-c1cncnc1Nc1ccc(F)cc1	inactive: -17.6%	–
CC(=O)N[C@@H](Cc1ccc(O)cc1)C(=O)O	inactive: 17.9%	–
OC[C@@H](O)[C@@H](O)[C@H](O)[C@H](O)CO	inactive: 14.5%	–
C=CCc1ccc(O)c(OC)c1	inactive	–
CNc1ncnc2ccc(-c3cccc(OC)c3)cc12	inactive: 0.0806%	–
CS(=O)(=O)Nc1cccc(-c2nc(NCc3cccs3)c3ccccc3n2)c1	inactive: -14.7%	–
COc1ccc(NC(=O)N2CC3(CCN(C(=O)c4cccn4C)CC3)C2)cc1	inactive: 5.96%	–
Cc1noc(C)c1C(=O)N1CCC2(CCCN(Cc3ccccc3)C2)CC1	inactive: 15.4%	–
CCCCN1C[C@H](O)[C@@H](O)[C@H](O)[C@H]1CO	inactive: 9.02%	–
CCn1c(-c2ccccc2F)nc2cc(C(=O)NCc3ccc(C)o3)cc(NC(C)=O)c21	inactive: 10.6%	–
C[C@@H]1C(=O)O[C@H]2[C@@H](O)[C@@]34[C@H]5CC(C(C)(C)C)[C@]36[C@@H](OC(=O)[C@@H]6O)O[C@@]4(C(=O)O5)[C@@]12O (stereo partly specified)	inactive: 9.45%	–
O=C(c1ccc2[nH]ccc2c1)N1CCOc2ccc(CN3CCN(c4ccccn4)CC3)cc2C1	inactive: 11.2%	–
CN1CCN(c2ncc3nc(CCc4ccccc4)c(=O)n(Cc4cccs4)c3n2)CC1	inactive: -18%	–
c1ccc2c(c1)CCCC2C1=NCCN1 (stereo unspecified)	inactive	–
COc1cccc(CCc2ccccc2OCC(CN(C)C)OC(=O)CCC(=O)O)c1 (stereo unspecified)	inactive: 18.3%	–
CNc1ncnc2c1ncn2[C@@H]1O[C@H](CO)[C@@H](O)[C@H]1O	inactive	–
CC(C)C[C@H](NC(=O)[C@@H](Cc1c[nH]c2ccccc12)NC(=O)[C@H](Cc1ccc(O)cc1)NC(=O)[C@H](CO)NC(=O)[C@H](Cc1c[nH]c2ccccc12)NC(=O)[C@H](Cc1cnc[nH]1)NC(=O)[C@@H]1CCC(=O)N1)C(=O)N[C@@H](CCCN=C(N)N)C(=O)N1CCC[C@@H]1C(=O)NCC(N)=O	inactive: 20.5%	–

SMILES	activity change, negative = inhibition	Potency
CC(C)OC(=O)C(C(=O)OC(C)C)=C1SC=CS1	inactive: -1.37%	–
CSCC[C@@H](N)C(=O)O	inactive: -3.01%	–
N#Cc1cccc(NC(=O)N2CC3(CCN(C(=O)c4cccc(F)c4)CC3)C2)c1	inactive: -13.3%	–
O=C(c1ccc(F)cc1)C1CCN(CCCCc2ccccc2)CC1	inactive: 12.9%	–
CC(NC(=O)c1ccco1)c1nnc2n1CCN(Cc1cccc(Cl)c1)CC2 (stereo unspecified)	inactive: 5.3%	–
CCOC(=O)C(C#N)=C(c1ccccc1)c1ccccc1	inactive: -1.48%	–
CS(=O)(=O)Nc1cc2occ(NC=O)c(=O)c2cc1Oc1ccccc1	inactive: 41.3%	–
N[C@@H](CC(=O)O)C(=O)O	inactive	–
O=C(O)c1cc(-c2ccc(-c3c(-c4ccc5c(c4)OCO5)noc3-c3ccsc3)cc2)nc2ccccc12	inactive: 20.3%	–
CCOc1cccc(CN2CCC(n3cc(C(=O)N4CCCCC4)nn3)CC2)c1O	inactive: 17.1%	–
O=C(NCC1Cc2cccc(-c3cnccn3)c2O1)c1ccc(F)c(Cl)c1 (stereo unspecified)	inactive: 11.6%	–
O=C1NCCN1c1ncc([N+](=O)[O-])s1	inactive: -11.8% [at 75.8 µM]	–
C[Se]CC[C@H](N)C(=O)O	inactive: 17.2%	–
O=C(/C=C(\O)c1ccccc1)c1ccccc1O	inactive: -18.9%	–
COc1ccc(-c2nc3cc(C)ccc3cc2CN(C(=O)c2cc(C)nn2C)C2CC2)cc1OC	inactive: -5.62%	–
O=C(O)C1=C[C@@H](O)[C@@H](O)[C@H](O)C1	inactive: 5.29%	–
O=S(=O)(c1ccccc1)N1CCC2(CCN(Cc3nccs3)CC2)CC1	inactive: 13.1%	–
C1N2CN3CN1CN(C2)C3	inactive	–
COC(=O)[C@@H](CC(C)C)N(Cc1ccccc1)S(=O)(=O)N(Cc1ccccc1)[C@@H](CC(C)C)C(=O)OC	inactive: -27.9%	–
CC(=O)NCCNc1nc(-c2ccc3c(c2)OCO3)nc2ccccc12	inactive: 8.65%	–
Cc1nc2cnc(N3CCOCC3)nc2n(Cc2ccc(F)cc2)c1=O	inactive: 16%	–
COCC(=O)N1CCC[C@@]2(CCN(c3ncccn3)C2)C1	inactive: 27.5%	–

SMILES	activity change, negative = inhibition	Potency
CC(C)[C@H]1CC[C@@H](C)C[C@H]1O	inactive: 11%	–
COc1ccc(Oc2ncc3nc(CCc4ccccc4)c(=O)n(C)c3n2)cc1	inactive: 3.05%	–
COc1ncc2nc(-c3ccc(Cl)cc3)c(=O)n(-c3ccccc3)c2n1	inactive: 14.6%	–
CC(=O)N1CCC[C@@]2(CCN(C(=O)Nc3ccccc3)C2)C1	inactive: 7.87%	–
CC(=O)NCCNc1ncncc1-c1ccccc1CN(C)C	inactive: -2.71%	–
O=C(O)[C@H]1CN(CCCP(=O)(O)O)CCN1	inactive	–
CCC1CN(CCNC(=O)C2CCCCN2C)Cc2cc(OC)ccc2O1 (stereo unspecified)	inactive: 16.1%	–
COc1ccc2[nH]c3c(c2c1)CCNC3=O	inactive: 12%	–
COc1ccc(Oc2ncc3nc(-c4cccc(C#N)c4)c(=O)n(CCC#N)c3n2)cc1	inactive: 11.3%	–
O=c1ccc2cc3ccoc3cc2o1	inactive: 17.6%	–
COc1ccc(-c2nc3cnc(Oc4ccccc4)nc3n(CCC#N)c2=O)cc1	inactive: -8.74%	–
CN(C)Cc1ccccc1-c1nc(N(C)C)c2ccccc2n1	inactive: 12.8%	–
CN=c1nc(-c2ccccc2)n(-c2ccccc2)s1	inactive: 2.72% [at 75.8 µM]	–
CCCC[C@@]1(C2CCCC2)Cc2cc(OCC(=O)O)c(Cl)c(Cl)c2C1=O	inactive: -11.5% [at 75.8 µM]	–
Nc1ccc(S(=O)(=O)NC(=O)c2ccccc2)cc1	inactive	–
COc1cc2c(cc1OC)C1CC(=O)C(CC(C)C)CN1CC2 (stereo unspecified)	inactive: 4.04% [at 75.8 µM]	–
O=C(c1cc(C(F)(F)F)cc(C(F)(F)F)c1)N1CCC2(CC1)CN(Cc1ccncc1)C2	inactive: -5.2%	–
C[N+](C)(C)CCOP(=O)(O)OP(=O)([O-])OC[C@H]1O[C@@H](n2ccc(N)nc2=O)[C@H](O)[C@@H]1O	inactive	–
